Results taken from article PMC6919601, “Identification of Plasmodium dipeptidyl aminopeptidase allosteric inhibitors by high throughput screening” (PLoS ONE, 2019).
About 230 (0.21%) of roughly 110,000 compounds showed an effect of 50% or more. The list shows a part of the results.

biological target: DPAP1 (Plasmodium falciparum, UniProt Q8IIJ9); assay: primary screen, percent inhibition; read by cleavage of a fluorogenic dipeptide substrate; higher = more effect of the substance; set-up: species or system P. falciparum D10 trophozoite lysates; single well
Sequence (Q8IIJ9 whole entry, looked up): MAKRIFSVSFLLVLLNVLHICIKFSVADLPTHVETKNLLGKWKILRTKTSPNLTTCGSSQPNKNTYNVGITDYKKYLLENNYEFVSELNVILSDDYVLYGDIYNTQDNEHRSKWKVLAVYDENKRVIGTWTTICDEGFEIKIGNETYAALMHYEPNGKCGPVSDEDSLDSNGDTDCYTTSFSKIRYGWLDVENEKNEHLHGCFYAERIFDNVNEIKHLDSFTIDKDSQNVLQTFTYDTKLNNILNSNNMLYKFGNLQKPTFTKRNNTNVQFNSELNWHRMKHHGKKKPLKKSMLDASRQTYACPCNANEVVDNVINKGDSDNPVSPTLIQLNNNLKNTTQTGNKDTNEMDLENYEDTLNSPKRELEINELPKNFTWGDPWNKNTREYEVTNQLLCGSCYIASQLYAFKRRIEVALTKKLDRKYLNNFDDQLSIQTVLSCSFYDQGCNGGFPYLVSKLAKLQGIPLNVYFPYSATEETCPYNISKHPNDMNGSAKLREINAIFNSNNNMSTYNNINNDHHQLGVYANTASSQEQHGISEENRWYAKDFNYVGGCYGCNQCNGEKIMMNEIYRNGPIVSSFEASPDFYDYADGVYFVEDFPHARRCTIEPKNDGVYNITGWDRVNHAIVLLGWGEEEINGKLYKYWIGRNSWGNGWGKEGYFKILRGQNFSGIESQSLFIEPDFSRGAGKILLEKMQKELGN
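Also: 30 min substrate incubation versus DMSO and 10 µM JCP410 controls.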

| Structure (SMILES) | % Inhibition @ 10 uM |
| --- | --- |
| O=C(O)C1Cc2c([nH]c3ccccc23)C(c2cc([N+](=O)[O-])ccc2O)N1 (stereo not shown) | -0.415% |
| CCOc1ccccc1N(CC(=O)Nc1ccccc1C(C)C)S(C)(=O)=O | -11% |
| Clc1ccc(N2N=C(/C=C/c3ccccc3)CC2c2ccccc2)cc1 (stereo not shown) | 5.77% |
| COc1ccc(NC(=O)c2ccc3c(c2)C(=O)N(c2ccccc2OC)C3=O)c(OC)c1 | 3.24% |
| CC(C)c1ccc(OCCCCCN2CCOCC2)cc1 | -1.17% |
| COc1ccc2oc(/C=C/N(C)C)c(C(=O)c3ccc(Br)cc3)c2c1 | 3% |
| CS(=O)(=O)/N=C/N[C@@H](CS(=O)(=O)Cc1ccccc1OC(F)F)C(=O)NCC#N | -6.78% |
| OC1c2ccccc2CCc2ccc3ccccc3c21 (stereo not shown) | 0.726% |
| Cc1c(Cl)cccc1NS(=O)(=O)c1ccccc1 | -0.197% |
| COc1cc(C(=O)O/N=C(\C)c2ccc(Cl)cc2)cc(OC)c1OC | 4.42% |
| CCc1ccc(S(=O)(=O)c2nnn3c2nc(NCc2ccco2)c2cc(Cl)ccc23)cc1 | -8.58% |
| CCOc1ccc2ncc(S(=O)(=O)c3ccccc3)c(N3CCCC3)c2c1 | 1.62% |
| CCC(C)NC(=O)c1cnn2c1NC(c1ccc(OC)cc1)CC2C(F)(F)F (stereo not shown) | 7.93% |
| OC(COCC1COc2ccccc2O1)CN1CCN(Cc2ccccc2)CC1 (stereo not shown) | -4.21% |
| CC1CN(Cc2c(F)cccc2F)CC(C)O1 (stereo not shown) | -1.75% |
| COc1ccc(NCN2C(=O)c3ccc(C)cc3C2=O)cc1 | 1.92% |
| COc1cccc(CN2CCN(C(=O)CC(C)C)CC2)c1OC | -3.71% |
| COc1cccc(CNC(=O)CCc2ccc(-n3cnc4cccnc43)cc2)c1OC | -0.965% |
| CC/N=C1/SC(C(=O)Nc2ccc(Cl)cc2)CC(=O)N1CC (stereo not shown) | 0.121% |
| Cc1cc2nc(C)c(-c3ccccc3)c(N)n2n1 | -3.09% |
| Cc1ccnc(N2CCCC(C(=O)NCCCc3ccccc3)C2)n1 (stereo not shown) | 3.84% |
| CS(=O)(=O)c1ncc(Cl)c(C(=O)Nc2nnc(SC/C=C/c3ccccc3)s2)n1 | 0.569% |
| Cc1ccc(S(=O)(=O)NCC(C)(C)CNS(=O)(=O)c2ccc(C)cc2)cc1 | -4.63% |
| CCNC(=O)c1ccccc1NC(=O)c1ccc(OC)cc1 | 0.512% |
| Cc1ccc(CSc2nnc(N3C(N)=C(C#N)C(c4cccnc4)C4=C3CCCC4=O)s2)cc1 (stereo not shown) | -1.05% |

| Structure (SMILES) | % Inhibition @ 10 uM |
| --- | --- |
| Cc1ccc(-c2cc(-c3cc(Cl)ccc3O)[nH]n2)cc1 | 3.18% |
| CNC(=O)c1cccnc1NC(=O)c1ccccc1 | -7.17% |
| Cc1ccc(CNC(=O)CCN2N=C(c3ccccc3)CCC2=O)cc1 | -0.0542% |
| COc1ccc(S(=O)(=O)Nc2nccs2)cc1 | -6.12% |
| CCOc1ccc(CCN2C(=O)c3ccncc3C2=O)cc1OCC | 7.25% |
| COc1ccccc1N1CCN(S(=O)(=O)c2ccc(F)cc2)CC1 | 3.47% |
| CCCCOc1cc(C2C(C#N)=C(N)OC3=C2C(=O)CC(C)(C)C3)ccc1OC (stereo not shown) | -0.988% |
| C=CCOC(=O)c1sc(N2C(=O)c3oc4ccccc4c(=O)c3C2c2ccc(CC)cc2)nc1C (stereo not shown) | -2% |
| O=C(Nc1c(C(=O)Nc2cccnc2)cnn1-c1ccccc1)c1ccccc1 | -3% |
| COc1cccc(OCc2nc3ccccc3n2CCC(C)C)c1 | -2.92% |
| Cc1c(Br)c(C(F)(F)F)nn1CC(=O)N1CCCCCC1 | -2.5% |
| O=C(Nc1cccc2ccccc12)c1ccc2c(c1)OCO2 | 5.07% |
| CCOC(=O)C1=CN(Cc2ccc(OC)c(OC)c2)C=C(C(=O)OCC)C1c1ccc(O)cc1 | 0.219% |
| CC(CNC(=O)c1nnc(Cc2ccc3c(c2)OCO3)o1)c1ccccc1 (stereo not shown) | -0.602% |
| CCn1c(C)c(CCC(=O)O)c(=O)n2nc(-c3ccccc3OC)cc12 | 2.39% |
| COc1ccc(N2C(=O)CC(Cc3cccc(C)c3)C2=O)cc1 (stereo not shown) | -0.822% |
| COc1ccc(C(=O)c2oc3ccccc3c2NC(=O)c2ccc(Br)o2)cc1OC | 2.76% |
| O=C1NC(=O)N(Cc2ccccc2)C(=O)/C1=C\c1ccc(O)c(O)c1 | 3.47% |
| CC1CCN(S(=O)(=O)c2ccc(Cl)c(C(F)(F)F)c2)CC1 | 0.583% |
| CCC[C@H](NC(=O)C1(NC(=O)c2ccc(F)cc2)CCCCC1)C(=O)c1nc2ccccc2o1 | -4.72% |
| O=C(CSc1ccc2nnc(CCNS(=O)(=O)c3ccccc3)n2n1)c1ccccc1 | 0.0244% |
| CCOC(=O)c1cccc(NC(=O)C(CC)CC)c1 | -0.0619% |
| COc1cc(C2CC(C)(OC)Oc3cc4c(cc32)OCO4)cc(OC)c1OC (stereo not shown) | 9.62% |
| Cc1n[nH]c2c1C1(C(=O)N(C)c3ccc(Br)cc31)C(C#N)=C(N)O2 (stereo not shown) | -1.84% |
